# According to the supplement of paper PMC11417369:
# ± gives the standard deviation of the averaged measurements. Some of the results follow.
# Test system: PfAP2-I AP2 domain 3 (GST-tagged)
# Assay: gcPBM binding intensity (ln(normalized median fluorescence intensity)); higher = stronger DNA binding
# Method in brief: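 An Agilent 4 × 180k array of primer-extended double-stranded 36-bp intergenic genomic probes, with negative controls, was incubated for 1 h with GST-tagged P. falciparum DNA-binding domains expressed in E. coli. Alexa488 anti-GST antibody detected bound protein, scanned at 488 nm. Binding intensity is the highest Masliner-normalised natural-log median intensity across replicate spots of either probe orientation.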
row,Sequence,gcPBM binding intensity (ln)
1,TATTAACATATATAAAGTACATTAAACAACATTGTA [XGTACX_site7667],7.55 ± 0.42
2,CATATAAAAGGACACACACACACATATAAATATGTA [CACACA_site6568],8.04 ± 0.23
3,ATTTTTATAGAATGAACACACATATTATAGCATTTA [CACACA_site6842],7.56 ± 0.58
4,TGCTATTTTATTTATTCTTTTATAAAAGTATAATAT [XGTACX_negctrl_site358],7.83 ± 0.72
5,ATAAAAAAAATTTGCACACCTTCAAAGTAATATATA [CACACA_site1584],9.23 ± 0.099
6,AAAAAAAAAAAAAGTACATGCAATATGGATCTTAAA [TGCATGCA_site367],8.15 ± 0.28
7,TAATTTTTTTTTTTTTTTTTTGTACTTCATTTTTAT [CACACA_negctrl_site1395],7.62 ± 0.15
8,CATAGATACATACACGCACACACATATATATATATA [CACACA_site13],9.23 ± 0.23
9,GTATTACCTTATTATTGTACTTTCATGATATATATG [XGTACX_site5382],7.94 ± 0.69
10,TTAATGAATGGACACACACACATATATATATATATT [CACACA_site5294],7.93 ± 0.4
11,AACATACATGTATATAGTACATATTACATCTGATAC [XGTACX_site3649],7.67 ± 0.59
12,TACACAAGAAAATTCACACACACACCCATATATATA [CACACA_site3879],8.35 ± 0.73
13,AAGAAAATTAAATTAACACACATAAATATATATATA [CACACA_site1664],9.19 ± 0.13
14,GAGTTATTTCTTATTTAAGCATTCTACATATATATA [CACACA_negctrl_site239],7.71 ± 0.59
15,ATTTTACATATTTGCACACATATATTTAAATACATA [CACACA_site4627],9.85 ± 0.28
16,ATATTTATCTTTTTATGTACATATGCCCCTTTTCTG [XGTACX_site673],8.37 ± 0.52
17,TCTTGGTTATTAAAAAAAAAAAAATATATTTTTCCT [TGCATGCA_negctrl_site445],7.34 ± 0.58
18,GTCCTTATGGATGATAAATTATTTTAAATATTCTAT [XGTACX_negctrl_site200],7.31 ± 0.54
19,AATAAAAAATATATGAGTACTAAATTGTTTTCTTAA [XGTACX_site8573],7.66 ± 0.3

row,Sequence,gcPBM binding intensity (ln)
1,GGGAAAATAAATAAAGTGCAGATATTAAAAGTTGTA,8.85 ± 0.31
2,TTGCATATTTCTAATTGTACATTATTTTATTTTATA [XGTACX_site8451],7.75 ± 0.54
3,CTCAACGATAGAGAAACATGCAAGTATAAGCAACTA [TGCATGCA_site771],7.69 ± 0.78
4,ATTCACTAAAAAATTGCATGCAATAAATTTTTTTTT [TGCATGCA_site962],7.66 ± 0.48
5,TTTTATTGTTGTTATACACACCATATAAAATATTTC [CACACA_site4983],7.92 ± 0.6
6,AATTGATTTATATATTGTACATATAAATTTATGTAT [XGTACX_site7785],7.58 ± 0.29
7,AATAAATATAGATTCACACACAAACATATATAAATA [CACACA_site7814],7.6 ± 0.61
8,AAAAAAAAAATATATATATATATATATATATAATTT [GTGCAC_negctrl_site32],8.13 ± 0.38
9,AAGAAAAAAATTTATACAAGAATTTTTTATTATTAA [TGCATGCA_negctrl_site587],7.18 ± 0.69
10,TAATTGTACGCCAATACACACAGAATTAGAATGTAG [CACACA_site102],8.04 ± 0.44
11,ATAAATAAATGGTGTTGTACTCTATTATATATATAT [XGTACX_site7835],8.88 ± 0.11
12,TGTTAATTAAAGGACTGTACACTAATAATTCTATAA [XGTACX_site5195],7.9 ± 0.26
13,TCATATGTTTCATGTTGTACATTGAAAGTTTGGCTA [XGTACX_site3202],7.52 ± 0.48
14,AAATATGTACATATTATATATATATAATATATATTG [TGCATGCA_negctrl_site438],7.54 ± 0.25
15,GTTCTAATATATTGCACACGTAAAAATATAGGTAAT [CACACA_site886],10.3 ± 0.61
16,AATGTATATAATATTAATATGTAAATATATAATCAA [CACACA_negctrl_site1683],7.68 ± 0.57
17,TTAAAAAGTGCGTAGTGTACTAATATAAATAATACA [XGTACX_site2922],8.96 ± 0.27
18,TGAATAAATATATATACACACCCATATATATATATA [CACACA_site8833],9.28 ± 0.42
19,ATTATTATATATATAACACACATAATTATATACTTA [CACACA_site1563],7.89 ± 0.38

row,Sequence,gcPBM binding intensity (ln)
1,TATACCTATAAATACACACACATATATAAATATGTA [CACACA_site6625],7.64 ± 0.25
2,AAATAAAAACCATATCGTACAAAAATTTTTGTATTT [XGTACX_site7497],7.82 ± 0.64
3,ATATATATATATATATGTACTTAAAAATTTGTTTTG [XGTACX_site1514],9.21 ± 0.085
4,GATCACTGAATAAAGGCACACATCTGACTAATTTTT [CACACA_site66],8.56 ± 0.37
5,AAGTCAATTTTTTTTTTTTTTTTTTAACTTATTAAT [TGCATGCA_negctrl_site14],7.29 ± 0.67
6,TTTATTTATTATTAAAGTACTAAATCATATTATTAT [XGTACX_site992],7.52 ± 0.21
7,TATACATTATCTTATGCATGCGCATCTGCATATAAA [TGCATGCA_site266],8.25 ± 0.61
8,TTTTCTTTTTTCTGTTGTACTAAAAATAATTTTGTA [XGTACX_site5171],7.79 ± 0.39
9,TATTTATATATTATGTGTCCACATGTAAGCTATCTT [XGTACX_site3887],8.01 ± 0.36
10,CCACTAATAAATATTACACACATATATATATATATT [CACACA_site3128],7.88 ± 0.44
11,CTCATCCTTACATACACACACATATATATATATATA [CACACA_site103],9.29 ± 0.33
12,ATATTTAAATCGAAGGTGCGTATTTCCTTTTTTTTT [GTGCAC_site9632],9.01 ± 0.057
13,ATTCATTTCTATTTTACACACAATAAGTAACTTAAT [CACACA_site2850],8.21 ± 0.38
14,AGTATAAATAAATCATAAACATATATATATATATAT [GTGCAC_negctrl_site356],9.24 ± 0.31
15,ATATATACATATAACACACACATATATATATATATA [CACACA_site2575],9.16 ± 0.45
16,AAAAAAATAACAAAATGTATACAATATAACAAAAAT [GTGCAC_negctrl_site512],7.96 ± 0.7
17,AACATATACCCAGGTACATGCAAATATATATATTAT [TGCATGCA_site878],8.05 ± 0.64
18,ATATATATATATATGTGTACACAACAAAATAAAAAA [XGTACX_site7378],9.43 ± 0.48
